The values that follow come from the antibiotic and cytotoxicity screens of Wong et al. (2023).

Some of the results follow.

This assay has as its system HSkMC (human skeletal muscle cells). The assay can be described thus: cytotoxicity call (relative viability < 0.9). As to conditions: 10 µM.
With `COc1ccc(NC(=O)Nc2ccc3c(c2)C(=O)N([C@H](C)CO)C[C@H](C)[C@H](CN(C)C(=O)Nc2ccc4c(c2)OCO4)OCCCC[C@@H](C)O3)cc1`, the cytotoxicity call is “inactive”.
For `C[C@@H]1CCCCO[C@H](CN(C)C(=O)Nc2ccc(F)cc2)[C@@H](C)CN([C@H](C)CO)C(=O)c2cc(NC(=O)Nc3ccc4c(c3)OCO4)ccc2O1`, the cytotoxicity call was “inactive”.
Take `COc1ccc(S(=O)(=O)Nc2ccc3c(c2)CC(=O)N([C@@H](C)CO)C[C@H](C)[C@H](CN(C)S(=O)(=O)c2c(C)noc2C)O3)cc1`: the cytotoxicity call is “inactive”.
As for `NCCCCCCNC(=O)[C@H]1C[C@H]2C(=O)N[C@@H](CCCCN)C(=O)N2[C@H]1c1ccc(O)cc1`, the cytotoxicity call was “inactive”.
The value for `O=C(C[C@H]1CC[C@H](NC(=O)c2ccc(F)cc2)[C@H](CO)O1)NCc1ccncn1` was “inactive”.
For the compound `CO[C@H]1CN(C)C(=O)c2ccc(NS(C)(=O)=O)cc2OC[C@H](C)N(C(=O)C2CCCCC2)C[C@@H]1C`, the cytotoxicity call was “inactive”.
Turning to `Cc1noc(C)c1S(=O)(=O)Nc1ccc2c(c1)C(=O)N([C@@H](C)CO)C[C@H](C)[C@H](CN(C)S(=O)(=O)c1cn(C)cn1)OCCCC[C@H](C)O2`, the cytotoxicity call is “inactive”.
In the case of `C=CC[C@@H](CC(=O)N[C@H](CO)Cc1ccccc1)C(=O)NCCOC(=O)[C@@H](CC=C)CC(=O)OC(C)(C)C`, the cytotoxicity call was “inactive”.
As to `O=C(CN1CCOCC1)NCC[C@@H]1CC[C@H](NS(=O)(=O)c2ccc(F)cc2)[C@H](CO)O1`, the cytotoxicity call is “inactive”.
As for `CN(C)CC#Cc1ccc([C@@H]2[C@@H](CO)N3C(=O)CN(C(=O)CN(C)C)C[C@H]23)cc1`, the cytotoxicity call was “inactive”.
On to `Cn1cnc(CCNC(=O)C[C@H]2CC[C@@H]3[C@H](COC[C@H](O)CN3C(=O)Nc3ccc(C(F)(F)F)cc3)O2)c1`, for which the cytotoxicity call is “inactive”.
As for `COc1ccc(NC(=O)Nc2ccc3c(c2)C(=O)N([C@H](C)CO)C[C@H](C)[C@H](CN(C)Cc2ccc4c(c2)OCO4)OCCCC[C@@H](C)O3)cc1`, the cytotoxicity call was “inactive”.
As to `CC(C)N(CCCNC(=O)Nc1ccc(C(C)(C)C)cc1)C[C@H]1O[C@@H](n2cnc3c(N)ncnc32)[C@@H](O)[C@H]1O`, the cytotoxicity call is “inactive”.
For `C=CCNC(=O)[C@H]1[C@@H]2C(=O)O[C@@H](c3ccccc3)[C@@H](c3ccccc3)N2[C@@H](c2ccc(O)cc2)[C@]12C(=O)Nc1ccc(C#Cc3ccc(OC)cc3)cc12`, the cytotoxicity call was “inactive”.
With `O=C1COC2(CCN(C(=O)c3ccno3)CC2)CN1` the entry was “inactive”; with `CNC[C@@H]1OCCCC[C@@H](C)Oc2ccc(NC(=O)Nc3cccc4ccccc34)cc2C(=O)N([C@H](C)CO)C[C@@H]1C`, “inactive”; with `Cc1ccc(S(=O)(=O)N(C)C[C@@H]2Oc3ncc(C#CCN(C)C)cc3C(=O)N([C@H](C)CO)C[C@@H]2C)cc1`, “inactive”.
`CCCC(NC(C)C(=O)N1C(C(=O)O)CC2CCCCC21)C(=O)O` (stereo not drawn): the cytotoxicity call was “inactive”.
`CO[C@@H]1CN(C)C(=O)c2cc(NS(=O)(=O)c3ccccc3)ccc2OC[C@@H](C)N(C(=O)NC(C)C)C[C@H]1C`: the cytotoxicity call is “inactive”.
Regarding `C[C@@H]1CN([C@H](C)CO)C(=O)Cc2cc(NC(=O)CCN3CCOCC3)ccc2O[C@H]1CN(C)Cc1ccc(C(=O)Nc2ccccc2N)cc1`, the cytotoxicity call is “inactive”.
On to `Cc1noc(C)c1NC(=O)Nc1ccc2c(c1)C(=O)N([C@H](C)CO)C[C@@H](C)[C@@H](CN(C)Cc1ccc(Cl)c(Cl)c1)O2`, for which the cytotoxicity call was “inactive”.
`CCS(=O)(=O)Nc1ccc2c(c1)C(=O)N(C)[C@@H]1CC[C@@H](CC(=O)N[C@H]3CCN(Cc4ccccc4)C3)O[C@H]1CO2`: the cytotoxicity call was “inactive”.
`CNC(=O)C(=O)Nc1ccc(N2CCCS2(=O)=O)cc1`: the cytotoxicity call is “inactive”.
For `C[C@@H]1CN([C@@H](C)CO)C(=O)c2cccc(NC(=O)Nc3ccc(F)cc3)c2O[C@@H]1CN(C)Cc1ccc(-c2ccccc2)cc1`, the cytotoxicity call was “active”.
On to `CN(C)CC(=O)N1[C@@H]2c3ccc(-c4ccccc4)c(=O)n3C[C@H]1[C@H](CO)[C@H]2C(=O)N1CCN(C)CC1`, for which the cytotoxicity call is “inactive”.
Consider `C[C@@H]1CN([C@@H](C)CO)C(=O)c2cc(NC(=O)c3ccncc3)ccc2O[C@@H](C)CCCCO[C@H]1CN(C)CC1CCCCC1`, for which the cytotoxicity call is “inactive”.
In the case of `C[C@@H]1CN([C@H](C)CO)S(=O)(=O)c2ccc(-c3ccc(C(=O)N(C)C)cc3)cc2O[C@@H]1CN(C)C(=O)Cc1ccccn1`, the cytotoxicity call was “inactive”.
As for `CC(C)NC(=O)Nc1ccc2c(c1)CC(=O)N([C@@H](C)CO)C[C@H](C)[C@H](CN(C)S(=O)(=O)c1cccs1)O2`, the cytotoxicity call was “inactive”.
